In PubChem BioAssay AID686978 (National Center for Advancing Translational Sciences (NCATS), 2013):
Hit rate of the full screen: of about 420,000 compounds, about 64,000 (15%) were called active. The shares of active, inactive and inconclusive entries below differ from those in the screen. Calls follow the shape of the dose curve; as a rule, active = well fitted inhibition curve with a large enough effect; inconclusive = small, poorly fitted or top-dose-only effect; inactive = flat fitted curve, though single readings scatter. No potency is given beside an inconclusive call; the fits are too rough.

Assay: qHTS for Inhibitors of human tyrosyl-DNA phosphodiesterase 1 (TDP1): qHTS in cells in absence of CPT; also: nearly all actives have a fitted effect of over 55% in size
Settings: DT40 Tdp1-/- hTDP1 cells, no CPT, ATP luminescence, 48 h; series mostly up to 46.2 µM
Procedure, shortened: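 Cells were dispensed at 400 per well, compounds added by pin tool, plates incubated ≥48 hr at 37 °C, then CellTiter-Glo added for 30 min at room temperature before luminescence reading. Line: DT40 Tdp1-/- complemented with hTDP1; camptothecin omitted.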
Potency is read from the fitted curve at half-maximal effect; tags tell the direction and shape of the fitted curve.

SMILES | Potency
O=c1[nH]c(C2CCCN(S(=O)(=O)c3ccccc3F)C2)nc2c1nnn2Cc1ccccc1Cl (stereo not given) | inconclusive [inhibitor, single point]
CC(C)c1nc(NCCN2CCOCC2)c(C#N)c2c1COC(C)(C)C2 | inconclusive [inhibitor, single point]
O=C(CN1C(=O)CCn2nc(-c3ccccc3)cc21)NCc1ccccc1 | inactive
Nc1nc(Nc2ccccc2F)nc(NC2CCCCC2)c1[N+](=O)[O-] | inconclusive [inhibitor, single point]
O=C1C(Cl)=C(Nc2ccccc2)C(=O)c2ccccc21 | active: 2.91 µM
NC(=O)CSc1nc2cc3c(cc2c(=O)n1CCCC(=O)NCc1ccc2c(c1)OCO2)OCO3 | inconclusive [inhibitor, single point]
O=C(N/N=C\CCc1ccccc1)c1ccco1 | inconclusive [inhibitor, single point]
NC(=O)C1(Nc2ccc(-c3ccc(Br)cc3)cc2)CCCC1 | inconclusive [inhibitor, partial curve, poor fit]
CC1CCCCC1NC(=O)CCS(=O)(=O)c1ccc(Cl)cc1 (stereo not given) | inconclusive [inhibitor, single point]
CCCC(=O)Nc1nnc(SCC(=O)Nc2ccc3c(c2)OCO3)s1 | inconclusive [inhibitor, single point]
Cc1cccc(C(=O)N2[C@@H](C(C)C)COc3cc(Br)ccc3S2(=O)=O)c1 | inconclusive [inhibitor, single point]
COc1ccccc1CNC(=O)c1cnc2sc(N3CCCCC3)nn2c1=O | active: 23.1 µM
Cc1[nH]c2ccccc2c1/C=N/Nc1nc(Nc2ccccc2)nc(N2CCOCC2)n1 | active: 6.51 µM
O=C(c1cccnc1)C1CCCN(Cc2ccc3c(c2)CN(C(=O)c2cccc(Cl)c2)CCO3)C1 (stereo not given) | inconclusive [inhibitor, single point]
CN1CCC(Oc2ccccc2Sc2ccc(C(F)(F)F)cc2)CC1 | inconclusive [inhibitor, single point]
N#C/C(=C\c1cccc2ccccc12)c1nn(-c2ccccc2)c(N)c1C#N | inconclusive [inhibitor, partial curve]
CCCOc1cccc(C2c3c(oc4ccc(F)cc4c3=O)C(=O)N2CCc2ccc(OC)cc2)c1 (stereo not given) | inconclusive [inhibitor, single point]
CCCn1c(=O)c(C(=O)NCCCc2ccccc2)c(O)c2ccccc21 | inconclusive [inhibitor, single point]
CC(C)C[C@H]1CNC(=S)N1C[C@H]1CCCN1C[C@H](Cc1ccccc1)N1C[C@H](Cc2ccc(O)cc2)N(CC2CCCCCC2)C1=S | active: 13 µM
CO[C@H]1[C@H](NC(=O)c2cccs2)c2ccccc2C12CCN(Cc1cccn1-c1cccnc1)CC2 | inactive
CCCOc1ccc(-c2nnn(CC(=O)N3CCCC(C)C3)n2)cc1 (stereo not given) | inconclusive [inhibitor, partial curve, poor fit]
CN(CC(=O)Nc1cccc(F)c1)C(=O)c1ccc2c(c1)S(=O)(=O)N=C1CCCCCN12 | inactive
Cc1ccc(NC(=O)C2CCN(S(=O)(=O)c3cccc4nonc34)CC2)nc1 | inactive
Cc1ccccc1-c1nc(CS(=O)(=O)CC(=O)NCCCc2ccccc2)c(C)o1 | inconclusive [inhibitor, single point]

SMILES | Potency
Cc1ccsc1/C=N/N1CCN(Cc2ccccc2)CC1 | inactive
CCC(Sc1nnc2c3ccccc3n(CC)c2n1)C(=O)Nc1ccc(NC(C)=O)cc1 (stereo not given) | active: 20.6 µM
COc1cccc(C(CNC(=O)C(c2ccccc2)c2ccccc2)N(C)C)c1 (stereo not given) | inconclusive [inhibitor, single point]
COc1ccc(-n2nc(C(=O)NCCc3ccc(OC)c(OC)c3)c3c4ccccc4n(C)c3c2=O)cc1 | active: 14.6 µM
CC(C)c1ccc(NC(=O)c2cc(Br)ccc2Br)cc1 | active: 25.9 µM
CCCCSc1nc(O)cc(=O)n1CC | inactive
NS(=O)(=O)c1ccc(CNC(=O)c2cccc(S(=O)(=O)N3CCc4ccccc43)c2)cc1 | active: 9.2 µM
CCC(=O)c1ccc(OCC(O)CN2CCN(S(=O)(=O)c3ccc(NC(C)=O)cc3)CC2)cc1 (stereo not given) | inactive
CCC(C(=O)Nc1cc(C(F)(F)F)ccc1Cl)n1nc(C)c2sc3ccccc3c2c1=O (stereo not given) | active: 16.4 µM
COc1cc(C(=O)N(Cc2ccccc2)c2cccc(C)c2)ccc1OC(F)F | inconclusive [inhibitor, partial curve]
O=C(NCCc1ccccc1Cl)C1CCC(=O)N(Cc2cccc(C(F)(F)F)c2)C1 (stereo not given) | inconclusive [inhibitor, partial curve, poor fit]
CC(=O)/C=C/c1ccc2c(c1)S(=O)(=O)N(C1CCCC1)[C@H]2CC(C)=O | active: 7.08 µM
COc1ccc(CN(C(=O)CSc2nnc(-c3ccc(F)cc3)o2)c2ccc(F)cc2)cc1 | active: 20.6 µM
Cc1ccc(OCCCCn2c(CO)nc3ccccc32)cc1 | inconclusive [inhibitor, single point]
CCN=c1scc(-c2cccs2)n1/N=C/c1cc(OC)ccc1O | active: 20.6 µM
COc1cccc(CNC(=O)c2sc3ncccc3c2-n2c(C)ccc2C)c1OC | active: 13 µM
O=C1N/C(=N/N=C/c2ccc(O)cc2)SC1Cc1ccccc1 (stereo not given) | inactive
Cc1ccc(C(=O)N2CCN(c3ccc(C(F)(F)F)cn3)CC2)cc1 | inconclusive [inhibitor, partial curve]
CC(=O)c1ccc(NC(=O)CSc2nc(C)cc(C)c2C(N)=O)cc1 | inconclusive [inhibitor, single point]
COc1ccc(-c2nc3cnccn3c2NC(C)(C)CC(C)(C)C)cc1O | active: 18.4 µM
COc1ccc(NC(=O)c2ccc(Cl)cc2)c[n+]1[O-] | inactive
Cc1cc(C)nc(SCC(=O)NC2=NN=C(c3ccc(Br)cc3)CS2)n1 | active: 12.6 µM
N#Cc1cc2[nH]c(=O)c(=O)[nH]c2cc1[N+](=O)[O-] | inactive
COc1ccccc1CNCc1cc(OC)c(OC)c(OC)c1 | inconclusive [inhibitor, single point]

SMILES | Potency
CCOC(=O)c1ccc(NC(=S)N2CCSC2c2c(F)cc(F)cc2F)cc1 (stereo not given) | active: 25.9 µM
O=C(c1cccc(S(=O)(=O)N2CCN(c3ccccc3)CC2)c1)N1CC=C(c2ccccc2)CC1 | inconclusive [inhibitor, single point]
COC(=O)C1=CN(Cc2ccc(OC)c(OC)c2)C=C(C(=O)OC)C1c1cccc(O)c1 | inconclusive [inhibitor, single point]
O=C(NCC(c1ccco1)N1CCCCC1)c1ccc(COc2ccccc2)cc1 (stereo not given) | inconclusive [inhibitor, single point]
CCOc1nc(OCC)nc(-n2cc(-c3ccccc3)nn2)n1 | inconclusive [inhibitor, single point]
COc1ccc(N=C2CCS(=O)(=O)c3sccc32)cc1 | inconclusive [inhibitor, single point]
CCOC(=O)c1cc([N+](=O)[O-])sc1NC(=O)c1ccc(S(=O)(=O)N2CC3(C)CC2CC(C)(C)C3)cc1 (stereo not given) | active: 2.59 µM
Cc1ccc(S(=O)(=O)Cc2ccc(C(=O)N3CCN(c4ccc(F)cc4)CC3)o2)cc1 | inconclusive [inhibitor, single point]
Cc1ccc(C)c(CC(=O)N2CCCCC2c2cc(C(=O)Nc3ccc(F)c(Cl)c3)no2)c1 (stereo not given) | active: 23.1 µM
COc1cc(OC)c(NC(=O)CCCn2nc(C)c3sc4ccccc4c3c2=O)cc1Cl | inconclusive [inhibitor, single point]
C/C(=N\NC(=O)c1ccc(N(C)C)cc1)c1ccc(C)cc1C | inconclusive [inhibitor, single point]
CSc1nc(C(=O)N2CCc3c([nH]c4ccccc34)C2c2ccccn2)cs1 (stereo not given) | inconclusive [inhibitor, single point]
COc1ccc(C2=CC(=O)OC(C)(c3ccccc3)O2)cc1 (stereo not given) | inconclusive [inhibitor, single point]
O=c1cnc2cnc(N3CCNCC3)nc2n1C1CC1 | inactive
C[C@]12CC[C@@H]3c4ccc(O)cc4CC[C@H]3[C@@H]1CCC2=O | inconclusive [inhibitor, single point]
CC(=O)c1sc(NC(=O)C2CCCN2S(=O)(=O)c2ccccc2F)nc1C (stereo not given) | inactive
C#CCN(Cc1ccco1)C(=O)c1cc(COc2cccc3cccnc23)on1 | inconclusive [inhibitor, single point]
CCn1c(C)cc(C(=O)CSc2nnnn2C2CCCC2)c1C | inconclusive [inhibitor, partial curve, poor fit]
COc1cccc(C(=O)N2CCN(C(=O)C3COc4ccccc4O3)CC2)c1 (stereo not given) | inactive
CCOC(=O)N1CCN(C(=O)C2CCC(=O)N(CCCc3ccccc3)C2)CC1 (stereo not given) | inactive
CC(=O)Nc1nonc1-c1nnc(SCC(=O)Nc2cc(C)cc(C)c2)n1C | inconclusive [inhibitor, partial curve]
Cc1nn(Cc2c(Cl)cccc2Cl)c(C)c1C(=O)NCc1ccc(C)n1C | inactive
